Test results: patent US10358426B2, “Fungicidal substituted 2-[2-halogenalkyl-4-(phenoxy)-phenyl]-1-[1,2,4]triazol-1-yl-ethanol compounds” (BASF Agro B.V., priority 2011, dated 2019)

System: Botrytis cinerea
Experiment: Activity against the grey mold in the microtiterplate test (Botrci)
Type: cell-based
Settings: Use Example 11 comparison

Q: How did the “Growth (%) at 0.125 ppm Botrci” value turn out when `CC(O)(Cn1cncn1)c1ccc(Oc2ccc(Cl)cc2)cc1C(F)(F)F` (stereo not shown) [compound I-2, 2-[4-(4-chloro-phenoxy)-2-trifluoromethyl-phenyl]-1-[1,2,4]triazol-1-yl-propan-2-ol] was run?
A: Its value is 17%.
